From paper PMC12820563, “FoxP3 forms a head-to-head dimer in vivo and stabilizes its multimerization on adjacent microsatellites”
Some of the results follow.

Target: T1, MBP-FoxP1dN (Mus musculus, UniProt P58462 326-579)
T1 sequence: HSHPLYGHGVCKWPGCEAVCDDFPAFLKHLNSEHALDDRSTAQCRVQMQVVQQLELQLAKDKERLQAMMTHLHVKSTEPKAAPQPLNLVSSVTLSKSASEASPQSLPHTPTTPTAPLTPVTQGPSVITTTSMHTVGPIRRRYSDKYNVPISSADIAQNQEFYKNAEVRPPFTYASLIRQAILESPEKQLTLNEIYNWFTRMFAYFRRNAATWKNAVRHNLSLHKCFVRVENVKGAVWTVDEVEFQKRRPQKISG
Experiment: PD-seq (MBP pull-down with sequencing); 20 mM Tris-HCl pH 7.5, 100 mM NaCl, 1.5 mM MgCl2, 0.4 uM protein, 0.1 uM dsDNA library, 30 min, room temperature, amylose pull-down; high values mean tight binding
Conditions: protein: recombinant; tags: His6-MBP; chain copies: 2; dsDNA, one strand shown
Method in brief: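 Binding is reads-per-million enrichment of pull-down over input, with replicates pooled. It comes from 30 min room-temperature incubation in Tris pH 7.5 buffer with NaCl and MgCl2 of 0.4 µM His6-MBP-tagged, N-terminally truncated mouse FoxP3 or FoxP1 fragment from E. coli with 0.1 µM Klenow-filled degenerate double-stranded DNA library, followed by amylose resin capture, three washes and Illumina sequencing of the released DNA.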

Question: “GATGATTGTTCTCCCAGCTGATGAATTAGCTGAATCGAGTAAACAAATTTTCCTAATCTTTCTGTTCAAGCGCCATCTAC” was tested. Which binding signal did it give?
Answer: 0.949 RPM ratio (pull-down/input)

Question: Which binding signal does the source give for “GATGATTGTTCTCCCAGCTGATGAATTCTGTGGTTCGAGTAAACAAATTTTCCTAATCTTTCTGTTCAAGCGCCATCTAC” here?
Answer: 0.982 RPM ratio (pull-down/input)

Question: Which binding signal does the source give for “GATGATTGTTCTCCCAGCTGATGAATTTCCAGGATCGAGTAAACAAATTTTCCTAATCTTTCTGTTCAAGCGCCATCTAC” here?
Answer: 0.804 RPM ratio (pull-down/input)

Question: With “GATGATTGTTCTCCCAGCTGATGAATTGTTGCTATCGAGTAAACAAATTTTCCTAATCTTTCTGTTCAAGCGCCATCTAC” as the sequence, how does the binding signal read?
Answer: 1.72 RPM ratio (pull-down/input)

Question: For “GATGATTGTTCTCCCAGCTGATGAATTAATTACTTCGAGTAAACAAATTTTCCTAATCTTTCTGTTCAAGCGCCATCTAC”, which binding signal is on record?
Answer: 1.18 RPM ratio (pull-down/input)

Question: Which binding signal does the source give for “GATGATTGTTCTCCCAGCTGATGAATTGGCCTGTTCGAGTAAACAAATTTTCCTAATCTTTCTGTTCAAGCGCCATCTAC” here?
Answer: 0.821 RPM ratio (pull-down/input)

Question: “GATGATTGTTCTCCCAGCTGATGAATTTAGCTTATCGAGTAAACAAATTTTCCTAATCTTTCTGTTCAAGCGCCATCTAC” was tested. Which binding signal did it give?
Answer: 1.15 RPM ratio (pull-down/input)

Question: With “GATGATTGTTCTCCCAGCTGATGAATTCAAGGGCTCGAGTAAACAAATTTTCCTAATCTTTCTGTTCAAGCGCCATCTAC” as the sequence, how does the binding signal read?
Answer: 0.745 RPM ratio (pull-down/input)

Question: “GATGATTGTTCTCCCAGCTGATGAATTTCTGTCGTCGAGTAAACAAATTTTCCTAATCTTTCTGTTCAAGCGCCATCTAC” was tested. Which binding signal did it give?
Answer: 0.96 RPM ratio (pull-down/input)

Question: How did the binding signal turn out when “GATGATTGTTCTCCCAGCTGATGAATTTAGGGATTCGAGTAAACAAATTTTCCTAATCTTTCTGTTCAAGCGCCATCTAC” was run?
Answer: 0.973 RPM ratio (pull-down/input)

Question: Which binding signal does the source give for “GATGATTGTTCTCCCAGCTGATGAATTGCTTCAGTCGAGTAAACAAATTTTCCTAATCTTTCTGTTCAAGCGCCATCTAC” here?
Answer: 1 RPM ratio (pull-down/input)

Question: How did the binding signal turn out when “GATGATTGTTCTCCCAGCTGATGAATTGAACGCTTCGAGTAAACAAATTTTCCTAATCTTTCTGTTCAAGCGCCATCTAC” was run?
Answer: 0.864 RPM ratio (pull-down/input)

Question: For “GATGATTGTTCTCCCAGCTGATGAATTGCCACTTTCGAGTAAACAAATTTTCCTAATCTTTCTGTTCAAGCGCCATCTAC”, which binding signal is on record?
Answer: 1.1 RPM ratio (pull-down/input)

Question: For “GATGATTGTTCTCCCAGCTGATGAATTTGTCCGGTCGAGTAAACAAATTTTCCTAATCTTTCTGTTCAAGCGCCATCTAC”, which binding signal is on record?
Answer: 0.891 RPM ratio (pull-down/input)

Question: For “GATGATTGTTCTCCCAGCTGATGAATTGAGTTGATCGAGTAAACAAATTTTCCTAATCTTTCTGTTCAAGCGCCATCTAC”, which binding signal is on record?
Answer: 1.01 RPM ratio (pull-down/input)

Question: With “GATGATTGTTCTCCCAGCTGATGAATTAAAACTATCGAGTAAACAAATTTTCCTAATCTTTCTGTTCAAGCGCCATCTAC” as the sequence, how does the binding signal read?
Answer: 0.983 RPM ratio (pull-down/input)

Question: Which binding signal does the source give for “GATGATTGTTCTCCCAGCTGATGAATTTCGCCATTCGAGTAAACAAATTTTCCTAATCTTTCTGTTCAAGCGCCATCTAC” here?
Answer: 0.883 RPM ratio (pull-down/input)

Question: With “GATGATTGTTCTCCCAGCTGATGAATTAGTGAATTCGAGTAAACAAATTTTCCTAATCTTTCTGTTCAAGCGCCATCTAC” as the sequence, how does the binding signal read?
Answer: 0.981 RPM ratio (pull-down/input)

Question: “GATGATTGTTCTCCCAGCTGATGAATTACAAGACTCGAGTAAACAAATTTTCCTAATCTTTCTGTTCAAGCGCCATCTAC” was tested. Which binding signal did it give?
Answer: 1.07 RPM ratio (pull-down/input)

Question: With “GATGATTGTTCTCCCAGCTGATGAATTTGCCAGGTCGAGTAAACAAATTTTCCTAATCTTTCTGTTCAAGCGCCATCTAC” as the sequence, how does the binding signal read?
Answer: 0.797 RPM ratio (pull-down/input)

Question: For “GATGATTGTTCTCCCAGCTGATGAATTATGGTAATCGAGTAAACAAATTTTCCTAATCTTTCTGTTCAAGCGCCATCTAC”, which binding signal is on record?
Answer: 1.46 RPM ratio (pull-down/input)

Question: Which binding signal does the source give for “GATGATTGTTCTCCCAGCTGATGAATTCAAACCTTCGAGTAAACAAATTTTCCTAATCTTTCTGTTCAAGCGCCATCTAC” here?
Answer: 0.838 RPM ratio (pull-down/input)

Question: “GATGATTGTTCTCCCAGCTGATGAATTACCGAGTTCGAGTAAACAAATTTTCCTAATCTTTCTGTTCAAGCGCCATCTAC” was tested. Which binding signal did it give?
Answer: 0.938 RPM ratio (pull-down/input)

Question: For “GATGATTGTTCTCCCAGCTGATGAATTTGGGTGATCGAGTAAACAAATTTTCCTAATCTTTCTGTTCAAGCGCCATCTAC”, which binding signal is on record?
Answer: 0.896 RPM ratio (pull-down/input)

Question: Which binding signal does the source give for “GATGATTGTTCTCCCAGCTGATGAATTTGCTTATTCGAGTAAACAAATTTTCCTAATCTTTCTGTTCAAGCGCCATCTAC” here?
Answer: 1.64 RPM ratio (pull-down/input)

Question: How did the binding signal turn out when “GATGATTGTTCTCCCAGCTGATGAATTTGCGGGTTCGAGTAAACAAATTTTCCTAATCTTTCTGTTCAAGCGCCATCTAC” was run?
Answer: 0.893 RPM ratio (pull-down/input)

Question: “GATGATTGTTCTCCCAGCTGATGAATTCCGCGGTTCGAGTAAACAAATTTTCCTAATCTTTCTGTTCAAGCGCCATCTAC” was tested. Which binding signal did it give?
Answer: 0.838 RPM ratio (pull-down/input)

Question: With “GATGATTGTTCTCCCAGCTGATGAATTGGCTTTATCGAGTAAACAAATTTTCCTAATCTTTCTGTTCAAGCGCCATCTAC” as the sequence, how does the binding signal read?
Answer: 1 RPM ratio (pull-down/input)

Question: How did the binding signal turn out when “GATGATTGTTCTCCCAGCTGATGAATTCGCCGTTTCGAGTAAACAAATTTTCCTAATCTTTCTGTTCAAGCGCCATCTAC” was run?
Answer: 0.798 RPM ratio (pull-down/input)

Question: For “GATGATTGTTCTCCCAGCTGATGAATTTGATAAATCGAGTAAACAAATTTTCCTAATCTTTCTGTTCAAGCGCCATCTAC”, which binding signal is on record?
Answer: 1.14 RPM ratio (pull-down/input)

Question: “GATGATTGTTCTCCCAGCTGATGAATTCAATATATCGAGTAAACAAATTTTCCTAATCTTTCTGTTCAAGCGCCATCTAC” was tested. Which binding signal did it give?
Answer: 1.06 RPM ratio (pull-down/input)

Question: How did the binding signal turn out when “GATGATTGTTCTCCCAGCTGATGAATTTGACCCTTCGAGTAAACAAATTTTCCTAATCTTTCTGTTCAAGCGCCATCTAC” was run?
Answer: 0.866 RPM ratio (pull-down/input)
